Data: PMC9103030
Results are given in words; binding and its absence hold for the method and conditions named. Some binding calls cover weakened binding; strength is not graded here.

T1: OsJAZ8 (rice) (UniProt Q69P94)
T1 sequence: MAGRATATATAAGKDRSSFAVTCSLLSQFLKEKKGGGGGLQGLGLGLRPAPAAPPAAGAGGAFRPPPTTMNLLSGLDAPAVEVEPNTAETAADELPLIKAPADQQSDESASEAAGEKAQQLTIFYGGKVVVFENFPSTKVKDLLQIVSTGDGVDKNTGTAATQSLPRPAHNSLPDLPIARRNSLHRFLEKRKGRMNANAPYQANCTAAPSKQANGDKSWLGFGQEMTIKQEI

T2: OsJAZ4 (rice) (UniProt Q6ES51)
T2 sequence: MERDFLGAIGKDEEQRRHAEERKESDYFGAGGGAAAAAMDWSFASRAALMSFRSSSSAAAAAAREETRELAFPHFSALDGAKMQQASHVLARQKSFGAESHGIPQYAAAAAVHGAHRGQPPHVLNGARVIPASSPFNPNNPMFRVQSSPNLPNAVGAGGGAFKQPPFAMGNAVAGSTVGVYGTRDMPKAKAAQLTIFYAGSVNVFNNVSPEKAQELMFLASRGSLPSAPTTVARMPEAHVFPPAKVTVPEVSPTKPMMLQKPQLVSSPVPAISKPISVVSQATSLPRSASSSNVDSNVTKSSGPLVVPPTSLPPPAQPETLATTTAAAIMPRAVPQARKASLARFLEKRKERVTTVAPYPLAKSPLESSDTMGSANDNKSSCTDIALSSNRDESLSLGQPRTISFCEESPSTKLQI

T3: OsJAZ6 (rice) (UniProt Q84R94)
T3 sequence: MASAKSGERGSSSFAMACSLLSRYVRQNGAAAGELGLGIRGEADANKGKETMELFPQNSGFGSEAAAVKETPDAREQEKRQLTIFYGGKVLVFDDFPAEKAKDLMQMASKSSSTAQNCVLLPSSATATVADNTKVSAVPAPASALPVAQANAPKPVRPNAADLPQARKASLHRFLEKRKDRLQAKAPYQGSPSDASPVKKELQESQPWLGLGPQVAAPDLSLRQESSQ

T4: OsJAZ9 (rice) (UniProt Q8GSI0)
T4 sequence: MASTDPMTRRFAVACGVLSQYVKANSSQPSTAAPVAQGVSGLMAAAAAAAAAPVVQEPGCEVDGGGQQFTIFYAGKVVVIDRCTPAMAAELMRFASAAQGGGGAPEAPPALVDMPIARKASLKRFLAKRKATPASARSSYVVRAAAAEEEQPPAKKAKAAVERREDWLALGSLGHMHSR

T5: OsJAZ3 (rice) (UniProt Q6ZJU3)
T5 sequence: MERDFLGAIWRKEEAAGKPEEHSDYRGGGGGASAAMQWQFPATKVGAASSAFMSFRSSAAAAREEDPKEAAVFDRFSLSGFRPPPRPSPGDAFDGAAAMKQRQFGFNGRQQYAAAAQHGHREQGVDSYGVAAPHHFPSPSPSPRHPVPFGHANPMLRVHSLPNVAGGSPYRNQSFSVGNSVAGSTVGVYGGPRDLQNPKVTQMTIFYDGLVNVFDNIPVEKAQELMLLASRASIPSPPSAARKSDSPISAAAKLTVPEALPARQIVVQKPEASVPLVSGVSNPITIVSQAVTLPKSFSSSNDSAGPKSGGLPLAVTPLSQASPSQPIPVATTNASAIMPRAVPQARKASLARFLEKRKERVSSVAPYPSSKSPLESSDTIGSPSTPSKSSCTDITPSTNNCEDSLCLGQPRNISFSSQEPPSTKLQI

T6: OsJAZ7 (rice) (UniProt Q8H395)
T6 sequence: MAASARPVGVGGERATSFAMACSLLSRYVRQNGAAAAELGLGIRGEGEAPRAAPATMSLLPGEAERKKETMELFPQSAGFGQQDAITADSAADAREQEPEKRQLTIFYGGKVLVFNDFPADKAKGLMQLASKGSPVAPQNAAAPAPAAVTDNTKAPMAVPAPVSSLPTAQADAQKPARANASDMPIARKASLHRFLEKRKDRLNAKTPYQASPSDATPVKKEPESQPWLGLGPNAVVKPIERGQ

T7: OsJAZ1 (rice) (UniProt Q7XPM8)
T7 sequence: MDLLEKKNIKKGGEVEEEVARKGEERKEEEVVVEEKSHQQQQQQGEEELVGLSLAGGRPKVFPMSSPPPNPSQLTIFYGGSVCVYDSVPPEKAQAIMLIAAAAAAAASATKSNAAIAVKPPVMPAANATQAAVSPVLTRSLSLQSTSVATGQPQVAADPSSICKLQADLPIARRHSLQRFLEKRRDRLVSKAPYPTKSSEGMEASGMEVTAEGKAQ

T8: OsJAZ12 (rice) (UniProt Q7XEZ1)
T8 sequence: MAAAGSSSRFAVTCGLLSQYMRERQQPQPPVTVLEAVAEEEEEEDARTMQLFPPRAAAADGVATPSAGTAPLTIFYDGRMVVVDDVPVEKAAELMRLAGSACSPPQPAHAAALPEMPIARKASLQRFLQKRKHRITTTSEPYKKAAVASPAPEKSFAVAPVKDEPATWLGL

T9: OsJAZ5 (rice) (UniProt Q7XV97)
T9 sequence: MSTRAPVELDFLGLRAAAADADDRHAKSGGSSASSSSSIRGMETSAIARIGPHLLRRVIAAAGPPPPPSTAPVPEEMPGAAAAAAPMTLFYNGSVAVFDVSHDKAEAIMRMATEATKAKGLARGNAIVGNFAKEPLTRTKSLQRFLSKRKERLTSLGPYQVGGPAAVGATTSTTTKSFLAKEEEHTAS

B1: OsJAZ9 (protein, UniProt Q8GSI0 1-179)
chain: T4 sequence
B2: OsJAZ1 (protein, UniProt Q7XPM8 1-216)
chain: T7 sequence
B3: OsJAZ6 (protein, UniProt Q84R94 1-228)
chain: T3 sequence
B4: OsJAZ5 (protein, UniProt Q7XV97 1-188)
chain: T9 sequence
B5: OsJAZ8 (protein, UniProt Q69P94 1-232)
chain: T1 sequence
B6: OsJAZ7 (protein, UniProt Q8H395 1-244)
chain: T6 sequence
B7: OsJAZ12 (protein, UniProt Q7XEZ1 1-171)
chain: T8 sequence

molecular target: T1, OsJAZ8 (rice); experiment: two-hybrid; each of 13 full-length OsJAZs as BD (bait, left column) and AD (prey, top row) fusion; yeast Y2HGold; growth on SD/-Leu/-Trp/-His/-Ade; graded strong (++), weak (+), undetectable (-)

Row | Binder | binding
1 | B1 | no binding
2 | B2 | no binding
3 | B3 | no binding
4 | B4 | no binding
5 | B5 | no binding

molecular target: T2, OsJAZ4 (rice); experiment: as above

Row | Binder | binding
6 | B6 | no binding
7 | B1 | binds
8 | B2 | no binding
9 | B3 | no binding
10 | B4 | no binding
11 | B5 | no binding

molecular target: T3, OsJAZ6 (rice); experiment: as above

Row | Binder | binding
12 | B3 | no binding
13 | B7 | no binding
14 | B5 | no binding

molecular target: T4, OsJAZ9 (rice); experiment: as above

Row | Binder | binding
15 | B1 | binds
16 | B7 | no binding
17 | B4 | no binding
18 | B5 | no binding

molecular target: T5, OsJAZ3 (rice); experiment: as above

Row | Binder | binding
19 | B6 | no binding
20 | B1 | no binding
21 | B2 | no binding
22 | B3 | no binding
23 | B7 | no binding
24 | B4 | no binding
25 | B5 | no binding

molecular target: T6, OsJAZ7 (rice); experiment: as above

Row | Binder | binding
26 | B6 | binds
27 | B2 | no binding

molecular target: T7, OsJAZ1 (rice); experiment: as above

Row | Binder | binding
28 | B6 | no binding
29 | B2 | no binding
30 | B7 | no binding
31 | B4 | no binding
32 | B5 | no binding

molecular target: T8, OsJAZ12 (rice); experiment: as above

Row | Binder | binding
33 | B1 | no binding
34 | B2 | no binding
35 | B3 | no binding
36 | B7 | no binding
37 | B4 | no binding

molecular target: T9, OsJAZ5 (rice); experiment: as above

Row | Binder | binding
38 | B1 | no binding
39 | B2 | no binding
40 | B7 | no binding
41 | B4 | no binding
42 | B5 | no binding
